Among all 71,000 compounds or so, about 1,800 (2.5%) were called active. Inconclusive means that the source gave no clear call. Such entries were picked first, then a sample of the others. The call rests on the fitted dose curve; in most records, active means well fitted activation curve with a large enough effect in the signal ratio, with a control signal flat (not every such curve was filed as active); inconclusive means small, poorly fitted or top-dose-only effect, or effect the other way, or a change in a side signal; inactive means flat fitted curve, though single readings scatter; the % refers to the signal ratio. A potency beside an inconclusive call is a rough fit, not a confirmed value.
Experiment: Cell signaling CRE-BLA (Fsk stim); on activity change, negative = inhibition: % of control where 0% means no effect
Settings: CHO CRE-bla reporter (cAMP response element driving beta-lactamase), forskolin EC10, beta-lactamase ratio; activity change, negative = inhibition: at 38.2 µM (top of the series) unless noted
Summary of the method: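 Reporter-gene assay: CHO cells with beta-lactamase behind cAMP responsive elements, co-treated with compound and EC10 NKH 477 for 3 hours at 37 degrees Celsius. Activity came from the 460/530 nm CCF4 emission ratio.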
Potency means the concentration at half of the fitted maximal effect; tags describe the fitted curve by direction and shape.

| SMILES | activity change, negative = inhibition | Potency |
| --- | --- | --- |
| CCOC(=O)Nc1ccc2c(CN3CCN(S(=O)(=O)c4ccccc4)CC3)cc(=O)oc2c1 | inactive: 1.75% |  |
| COc1ccc(-c2cnnn2-c2ccc(NC(=O)c3ccco3)cc2)cc1OC |  | active: 3.16 µM |
| Cc1ccc(S(=O)(=O)NCC2CCC(C(=O)NCCCN3CCOCC3)CC2)cc1 (configuration not stated) | inconclusive: -16% |  |
| Cc1[nH]nc2c1-c1nc3ccccc3nc1C(C)(C)C2 | inconclusive: 17.8% |  |
| Fc1ccc(Cc2nnc(-c3cccs3)o2)cc1 | inactive: 0.442% |  |
| Cc1ccc(C2/C(=C(\O)c3c(C)nc4ccccn34)C(=O)C(=O)N2CCCN2CCOCC2)o1 (configuration not stated) | inactive: -3.24% |  |
| Cc1ccc(-c2nc3ccccc3c(=O)n2CCN2CCOCC2)cc1 | inactive: -9.87% |  |
| Cc1cc(C)c(NC(=O)c2ccc(S(=O)(=O)N(C)C)cc2)c(C)n1 | inconclusive: 2.71% |  |
| Cc1ccc(S(=O)(=O)c2ccc(Cl)cc2)cc1S(=O)(=O)N1CCOCC1 | inactive: -4.92% |  |
| Cc1nc(SCC(=O)Nn2c(-c3ccccc3)nc3ccccc3c2=O)n[nH]1 | inactive: -4.71% |  |
| C=CCn1c(N)c(S(=O)(=O)c2cccs2)c2nc3ccccc3nc21 |  | inconclusive: 12.6 µM [rising, single point] |
| O=C(Nc1cccc(NC(=O)N2CCN(c3ccccc3)CC2)c1)N1CCN(c2ccccc2)CC1 | inconclusive: -21.5% |  |
| Cn1c(=O)oc2cc(S(=O)(=O)N3CCCC(C(=O)N4CC=C(c5ccccc5)CC4)C3)ccc21 (configuration not stated) | inconclusive: -4.68% |  |
| O=C(CNS(=O)(=O)c1ccc(Br)s1)N1CCN(c2ncccn2)CC1 | inconclusive: 25.8% |  |
| COc1ccc(OC)c(NC(=O)c2cc(-c3ccc(C)cc3O)n[nH]2)c1 |  | inconclusive: 0.631 µM [rising, full curve, poor fit] |
| Nc1ccc(S(=O)(=O)Nc2ccccn2)cc1 | inactive: -4.95% [at 17.1 µM] |  |
| CN1[C@@H]2CC[C@H]1CC(OC(c1ccccc1)c1ccccc1)C2 (some centres not stated) | inconclusive: -15.5% [at 7.6 µM] |  |
| CC(=O)c1ccccc1[N+](=O)[O-] | inactive: -9.55% |  |
| O=C(NCCN1CCOCC1)c1cc(-c2ccc(Br)cc2)on1 | inconclusive: 9.69% |  |
| O=C(c1cnccn1)N1CCC[C@@]2(CCN(Cc3cc(C(F)(F)F)cc(C(F)(F)F)c3)C2)C1 | inactive: -4.06% |  |
| NC(=O)Cn1c(=O)oc2ccccc21 | inconclusive: 3.33% |  |

| SMILES | activity change, negative = inhibition | Potency |
| --- | --- | --- |
| COc1cccc(/C=N/n2c(-c3ccco3)nc3ccccc3c2=O)c1 |  | inconclusive: 2 µM [rising, full curve, poor fit] |
| CC(C)C[C@H](NC(=O)OC(C)(C)C)C(=O)N1CCC(C(=O)N[C@@H](Cc2ccccc2)C(=O)O)CC1 | inconclusive: -14.3% |  |
| COc1ccc(C(=O)Nc2cccc3c2C(=O)NC3=O)cc1S(=O)(=O)N1CCOCC1 |  | active: 2.51 µM |
| COc1ccc(C(=O)Cn2nnc(-c3ccccc3F)n2)cc1 | inconclusive: -21% |  |
| CCS(=O)(=O)n1nc(-c2ccc(OC)cc2)nc1SC |  | inconclusive: 10 µM [rising, single point] |
| COc1cc2c(cc1OC)-c1cc(NC3CCCCCC3)nc(=O)n1CC2 |  | active: 1 µM |
| CCOC(=O)c1c(NC(=O)c2nn(CC)cc2Br)c(C#N)cn1-c1ccccc1 |  | active: 2.51 µM |
| COC(=O)c1ccc(C)c(NC(=O)c2c(-c3ccccc3)noc2C)c1 | inconclusive: 3.36% |  |
| COc1ccc(N2CCN(c3nc4ccccc4n3CC(=O)c3ccccc3)CC2)cc1 |  | inconclusive: 5.01 µM [falling, single point] |
| CCCn1c(-c2ccc(F)cc2)nc2c(NCCN(C(C)C)C(C)C)nc(C)nc21 | inactive: 7.94% |  |
| O=C(CC1Sc2ccccc2NC1=O)Nc1cccc(-c2nnc3n2CCCCC3)c1 (configuration not stated) | inactive: -11.7% |  |
| COc1ccc(N2CCN(C(CNC(=O)C3CCCCC3)c3cccnc3)CC2)cc1 (configuration not stated) |  | inconclusive: 7.94 µM [falling, partial curve] |
| O=c1c2cnn(-c3ccc(F)cc3)c2ncn1Cc1ccccn1 | inactive: 11.3% |  |
| CCN1c2ccccc2-c2nc3ccccc3n2C1c1cccnc1 (configuration not stated) |  | inconclusive: 20 µM [rising, single point] |
| CN(C(=O)c1cccc(C#N)c1)c1nnc(-c2ccccn2)s1 | inconclusive: -17.2% |  |
| CCn1c(SCC(=O)Nc2cc(C)on2)nc2c(c1=O)SC(C)C2 (configuration not stated) | inactive: 23% |  |
| CCNc1ncc2nc(-c3ccccc3)c(=O)n(C[C@H]3CCCO3)c2n1 |  | inconclusive: 6.31 µM [rising, partial curve] |
| Cc1noc(C)c1COC(=O)c1cccc(S(=O)(=O)N2CCCCCC2)c1 | inactive: -1.01% |  |
| Cc1ccc2c(c1)c(C)c(C)n2CC(O)CN1CCOCC1 (configuration not stated) | inconclusive: 5.08% |  |
| Cc1ccc(C(c2nnnn2CCc2ccccc2)N2CCSCC2)cc1 (configuration not stated) | inactive: -0.708% |  |
| CCc1nc2sc3ccccc3c(=O)c2c(=O)n1Cc1ccco1 | inactive: 3.72% |  |

Reference: PubChem BioAssay AID662 (National Center for Advancing Translational Sciences (NCATS), 2007)
